The assay relates to MDA-MB-468 multi-cell spheroids, viability. The experiment in a line: Anticancer human tumor MDA-MB-468 cell line growth inhibition [IpAb].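 Further: spheroids exposed to agents for seven days; 100% = DMSO vehicle control viability.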 The following applies: stronger effect = lower value. The source says:
Combinatorial screen of targeted agents with ipatasertib and abemaciclib in multi-cell type tumor spheroids
A high-throughput screen of multi-cell type tumor spheroids was designed to identify active combinations of targeted small molecules and ipatasertib or abemaciclib. Complex spheroids include a stromal component modeled by human endothelial cells (HUVEC) and fibroblasts modeled by human mesenchymal stem cells (MSCs). The concentration ranges selected for each drug and investigational agent were based upon clinically achievable concentrations if the clinical Cmax of the agent was known.
Compounds. The drugs and investigational agents: ipatasertib (NSC767898), abemaciclib(NSC768073), selumetinib (NSC741078), trametinib (758246), adavosertib (NSC754352), everolimus (NSC733504), sapanisertib (NSC764658), vemurafenib (NSC761431), venetoclax (NSC766270), copanlisib (NSC809693), apelisib (NSC765974), palbociblib (NSC758247), vemurafenib (NSC761431), dabrafenib (NSC764134), ravoxertinib (NSC781343), BMS-387032 (NSC767048), sotorasib (NSC818433), talazoparib (NSC767125) and afursertib (NSC778305), were obtained from the National Cancer Institute (NCI) Developmental Therapeutics Program Chemical Repository. The FDA-approved anticancer drug set is available from the NCI Developmental Therapeutics Program. […] The stock solutions were prepared in dimethyl sulfoxide (DMSO, Sigma-Aldrich, St. Louis, MO, cat. D2650) at 800-fold the tested concentration and stored at -70 degrees C prior to their use. All drugs and investigational agents were tested over a range starting from a high concentration at or near the clinical Cmax and decreasing in half-log increments. If the clinical Cmax for an agent had not been determined, the highest concentration tested was 10 microM.
NCI60 Cell Culture. NCI60 cell lines were obtained from the NCI Developmental Therapeutics Program Tumor Repository. For each lot of cells, the Repository performed Applied Biosystems AmpFLSTR Identifiler testing with PCR amplification to confirm consistency with the published Identifier STR profile for each cell line. Cells were kept in continuous culture for no more than 20 passages. The optimal seeding densities for each of the cell lines at each time point assessed were determined prior to performing the concentration response studies. Briefly, the NCI60 human tumor lines were grown as monolayers in RPMI 1640 medium supplemented with 10% FBS and 2 mmol/L L-glutamine.
An additional 9 lines were from the NCI60 cell line panel including MDA-MB-231 breast carcinoma, MDA-MB-468 breast carcinoma, MCF7 breast carcinoma, Hs578T breast carcinoma, MALME-3M melanoma, SK-MEL-2 melanoma, SK-OV-3 ovarian carcinoma, DU-145 prostate carcinoma, PC-3 prostate carcinoma, all cell lines along with major genetic alterations are listed on Table 2. Pooled donor human umbilical vein endothelial cells (HUVEC, Lonza, cat. CC-2519) and human mesenchymal stem cells (hMSC, Lonza, cat. PT-2501) were purchased from Lonza (Walkersville, MD).
PDMR cell lines were grown in complete medium (DC medium): Dulbecco's modified Eagle's medium (DMEM)/F12 supplemented with 5% fetal bovine serum (FBS), 2 mM L-glutamine, 100 U/mL penicillin and 100 µg/ml streptomycin, 0.4 µg/ml hydrocortisone, 10 ng/ml epidermal growth factor (EGF) recombinant human protein, 24 µg/mL adenine, and 0.1 mg/mL primocin. During culture from frozen stock vials, PDMR cells were cultured in the same medium containing 10 µM Y-27632 (see Table 3). […]

Some entries of the source have several records that differ or are many. Only these are listed. There may be further records. The values listed for one entry are repeats (runs, samples, wells, individuals or studies). Marks such as (2×) give the number of equal values in this list.

Turning to `CCN1CCN(Cc2ccc(Nc3ncc(F)c(-c4cc(F)c5nc(C)n(C(C)C)c5c4)n3)nc2)CC1`, the viability, T/C reads like this: (compound alone 0.01 µM) 102 (2×), 115, 95.6, 96.2, 95.8, 90.1, 103, 82.4, 94, 97.1, 111, 106%; (compound alone 0.0316 µM) 92.6, 103, 110, 96.6, 89.7, 95, 87, 112, 105, 92.1, 84.1, 93.5% (2×); (compound alone 0.316 µM) 100, 109, 102, 106, 97.8, 84, 104, 105, 112, 99.1, 91.5, 85.2, 103%; (compound alone 1 µM) 68.7, 88.4, 76.9, 79.1, 78, 60.6, 81.4, 73.6, 71.9, 90.2, 86.6, 73.5, 82.8%.
Turning to `CC(C)NCC(C(=O)N1CCN(c2ncnc3c2C(C)CC3O)CC1)c1ccc(Cl)cc1` (stereo not given), where the note is “compound alone 0.316 µM”, the viability, T/C was 62.4, 83.1, 66.7, 66.3, 56.1, 63.8 (2×), 74, 70.3, 64.9, 56.4, 58, 66.6%.

These data come from PubChem BioAssay AID2060326 (Molecular Pharmacology Branch, DTP, NCI, 2025).
